Measurements taken from PubChem BioAssay AID1745845 (National Center for Advancing Translational Sciences (NCATS), 2022).
Screen size: about 360,000 compounds; about 2,600 (0.72%) were called active. This list was built around the results that the source calls inconclusive (neither active nor inactive); the mix of calls is not that of the screen. Calls come from the whole dose curve; as a rule, active = well fitted inhibition curve with a large enough effect; inconclusive = small, poorly fitted or top-dose-only effect; inactive = no such curve, though single readings can be large or run the other way. Potencies of inconclusive entries are doubtful fits and often do not repeat.

experiment: Primary qHTS for Inhibitors of ATXN expression; conditions: HEK-293 ATXN2-luciferase reporter, luminescence, 24 h; activity change, negative = inhibition: at 57 µM (top of the series); note: nearly all actives have a fitted effect of over 55% in size
Method in brief: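 qHTS (up to 57 uM final) was run with 24 h compound exposure of reporter cells at 37 °C. Each well was multiplexed: SteadyGlo luminescence measured ATXN2-luciferase expression after a fluorogenic Gly-Phe-AFC viability readout (25 uM final).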
% is set by controls: 0 for no effect and ±100 for the full control effect; potency is the fitted concentration of half-maximal effect; tags give direction and shape of the fitted curve.

| SMILES | Potency | activity change, negative = inhibition |
| --- | --- | --- |
| Cc1nc([N+](=O)[O-])c(Br)n1Cc1ccccc1 | inconclusive: 31.6 µM [inhibitor, single point] |  |
| Cc1cc(N/N=C/c2ccccc2Br)nc2ccccc12 |  | inactive: 28.4% |
| CCc1nnc(NC(=O)CSc2nnc(-c3ccc(S(=O)(=O)N4CCCC4)cc3)n2CC)s1 |  | inactive: 3.91% |
| CCc1nc2ccc(C(=O)NCC3CCCCC3)cn2c1N(C)Cc1nccs1 |  | inactive: -36.5% |
| CCO[C@H]1OC(C(=O)N2CCN(Cc3ccc4c(c3)OCO4)CC2)=C[C@@H](c2ccc(C(F)(F)F)cc2)[C@@H]1CCCO | inconclusive: 28.2 µM [inhibitor, single point] |  |
| NS(=O)(=O)c1ccc(CCNC(=O)c2cc(-c3ccccn3)nc3ccc(Br)cc23)cc1 | inconclusive: 42.3 µM [inhibitor, single point] |  |
| COc1ccc(NC2=NCCCCC2)cc1 |  | inactive: -5.7% |
| CCN1CCN(C(=O)c2ccc(CNS(=O)(=O)c3cccc(OC)c3)cc2)CC1 |  | inactive: 0.141% |
| CCOC(=O)c1cc(-c2sc(NC(=O)c3ccccc3)nc2C)n(Cc2ccccc2)n1 | inconclusive: 31.6 µM [inhibitor, single point] |  |
| CCS(=O)c1ccccc1C(=O)OC(C)C(=O)Nc1ccc(S(=O)(=O)N2CCCC2)cc1 (stereo not given) |  | inactive: 0.627% |
| CCN(CC)CCNC(=O)c1[nH]c2ccc(OCc3ccccc3)cc2c1C | inconclusive: 20 µM [inhibitor, partial curve] |  |
| CC(C)c1nc(SCC(=O)Nc2ccc(C(=O)O)cc2)c2c3c(sc2n1)CCCC3 |  | inactive: -6.11% |
| COc1cc(N)c(Cl)cc1C(=O)NC1CCN(CCCOc2ccc(F)cc2)CC1OC (stereo not given) | inconclusive: 28.2 µM [inhibitor, partial curve] |  |
| Cc1nc2cc(-c3cccc(F)c3)nn2c(C)c1CCC(=O)Nc1ccccc1C(N)=O | inconclusive: 12.6 µM [inhibitor, partial curve, poor fit] |  |
| COc1ccccc1NC(=O)Nc1nc(CC(=O)Nc2ccc(F)c(F)c2)cs1 |  | inactive: 6.5% |
| C=Cc1ccc(Cn2c(C(=O)O)c(CNCCc3ccco3)c3ccc(C)cc32)cc1 |  | inactive: -31.5% |
| CCC(=O)Nc1ccc(N2CCCCC2)c(C(=O)Nc2ccc(OC)cc2)c1 |  | inactive: -12% |
| C/C(=N\NC(=O)Cc1ccc(Cl)cc1)c1ccccn1 | active: 3.16 µM |  |
| O=C1N[C@@H](c2ccccc2)COC(=O)[C@@H](Cc2ccc(F)cc2)C/C=C\C[C@H]1CC(=O)N(CCO)Cc1ccccc1 | inconclusive: 31.6 µM [inhibitor, single point] |  |
| COc1ccc(-c2nc(CSCC(=O)N3CCN(c4ccccc4F)CC3)c(C)o2)cc1 | inconclusive: 22.4 µM [inhibitor, single point] |  |
